# Results as given in the supplement of paper PMC8728848.
# Some of the results follow.
# Experiments:
# Assay in all cases: glycan array binding signal (z-score within array); higher = stronger binding
# Settings in all cases: glycan notation: IUPAC condensed, linker removed
# [1] = target: Gal(b1-4)GlcNAc(b1-3)Gal(b1-4)Glc
# Summary of the method: (§1)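 Negative Z-scores can be read as non-binding. The Z-score is calculated within each array and then averaged across arrays of one protein sequence at different concentrations or buffers and across linkers. Arrays, 3228 in all, were curated from the Consortium for Functional Glycomics database and kept only where the protein sequence was available.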
# [2] = target: Gal(b1-4)GlcNAc(b1-3)Gal(b1-4)GlcNAc
# Summary of the method: as §1
# [3] = target: Gal(b1-4)GlcNAc(b1-3)Gal(b1-4)GlcNAc(b1-2)Man(a1-3)[Gal(b1-4)GlcNAc(b1-3)Gal(b1-4)GlcNAc(b1-2)Man(a1-6)]Man(b1-4)GlcNAc(b1-4)GlcNAc
# Summary of the method: as §1
# [4] = target: Gal(b1-4)GlcNAc(b1-3)Gal(b1-4)GlcNAc(b1-2)Man(a1-3)[Gal(b1-4)GlcNAc(b1-3)Gal(b1-4)GlcNAc(b1-2)Man(a1-6)]Man(b1-4)GlcNAc(b1-4)[Fuc(a1-6)]GlcNAc
# Summary of the method: as §1
# [5] = target: Gal(b1-4)GlcNAc(b1-3)Gal(b1-4)GlcNAc(b1-2)[Gal(b1-4)GlcNAc(b1-3)Gal(b1-4)GlcNAc(b1-6)]Man(a1-6)[Gal(b1-4)GlcNAc(b1-3)Gal(b1-4)GlcNAc(b1-2)Man(a1-3)]Man(b1-4)GlcNAc(b1-4)GlcNAc
# Summary of the method: as §1
# [6] = target: Gal(b1-4)GlcNAc(b1-3)Gal(b1-4)GlcNAc(b1-2)[Gal(b1-4)GlcNAc(b1-3)Gal(b1-4)GlcNAc(b1-6)]Man(a1-6)[Gal(b1-4)GlcNAc(b1-3)Gal(b1-4)GlcNAc(b1-2)Man(a1-3)]Man(b1-4)GlcNAc(b1-4)[Fuc(a1-6)]GlcNAc
# Summary of the method: as §1
# [7] = target: Gal(b1-4)GlcNAc(b1-3)Gal(b1-4)GlcNAc(b1-3)Gal(b1-4)GlcNAc
# Summary of the method: as §1
# [8] = target: Gal(b1-4)GlcNAc(b1-3)Gal(b1-4)GlcNAc(b1-3)Gal(b1-4)GlcNAc(b1-2)Man(a1-3)[Gal(b1-4)GlcNAc(b1-3)Gal(b1-4)GlcNAc(b1-3)Gal(b1-4)GlcNAc(b1-2)Man(a1-6)]Man(b1-4)GlcNAc(b1-4)GlcNAc
# Summary of the method: as §1
# [9] = target: Gal(b1-4)GlcNAc(b1-3)Gal(b1-4)GlcNAc(b1-3)Gal(b1-4)GlcNAc(b1-2)Man(a1-3)[Gal(b1-4)GlcNAc(b1-3)Gal(b1-4)GlcNAc(b1-3)Gal(b1-4)GlcNAc(b1-2)Man(a1-6)]Man(b1-4)GlcNAc(b1-4)[Fuc(a1-6)]GlcNAc
# Summary of the method: as §1
# [10] = target: Gal(b1-4)GlcNAc(b1-3)Gal(b1-4)GlcNAc(b1-3)Gal(b1-4)GlcNAc(b1-2)[Gal(b1-4)GlcNAc(b1-3)Gal(b1-4)GlcNAc(b1-3)Gal(b1-4)GlcNAc(b1-6)]Man(a1-6)[Gal(b1-4)GlcNAc(b1-3)Gal(b1-4)GlcNAc(b1-3)Gal(b1-4)GlcNAc(b1-2)Man(a1-3)]Man(b1-4)GlcNAc(b1-4)[Fuc(a1-6)]GlcNAc
# Summary of the method: as §1
# [11] = target: Gal(b1-4)GlcNAc(b1-3)Gal(b1-4)GlcNAc(b1-3)Gal(b1-4)GlcNAc(b1-3)Gal(b1-4)GlcNAc(b1-2)Man(a1-3)[Gal(b1-4)GlcNAc(b1-3)Gal(b1-4)GlcNAc(b1-3)Gal(b1-4)GlcNAc(b1-3)Gal(b1-4)GlcNAc(b1-2)Man(a1-6)]Man(b1-4)GlcNAc(b1-4)GlcNAc
# Summary of the method: as §1
# [12] = target: Gal(b1-4)GlcNAc(b1-3)Gal(b1-4)GlcNAc(b1-3)Gal(b1-4)GlcNAc(b1-3)Gal(b1-4)GlcNAc(b1-2)Man(a1-3)[Gal(b1-4)GlcNAc(b1-3)Gal(b1-4)GlcNAc(b1-3)Gal(b1-4)GlcNAc(b1-3)Gal(b1-4)GlcNAc(b1-2)Man(a1-6)]Man(b1-4)GlcNAc(b1-4)[Fuc(a1-6)]GlcNAc
# Summary of the method: as §1
# [13] = target: Gal(b1-4)GlcNAc(b1-3)Gal(b1-4)GlcNAc(b1-3)Gal(b1-4)GlcNAc(b1-3)Gal(b1-4)GlcNAc(b1-2)[Gal(b1-4)GlcNAc(b1-3)Gal(b1-4)GlcNAc(b1-3)Gal(b1-4)GlcNAc(b1-3)Gal(b1-4)GlcNAc(b1-6)]Man(a1-6)[Gal(b1-4)GlcNAc(b1-3)Gal(b1-4)GlcNAc(b1-3)Gal(b1-4)GlcNAc(b1-3)Gal(b1-4)GlcNAc(b1-2)Man(a1-3)]Man(b1-4)GlcNAc(b1-4)[Fuc(a1-6)]GlcNAc
# Summary of the method: as §1
# [14] = target: Gal(b1-4)GlcNAc(b1-3)Gal(b1-4)GlcNAc(b1-3)Gal(b1-4)GlcNAc(b1-3)Gal(b1-4)GlcNAc(b1-3)Gal(b1-4)GlcNAc(b1-2)Man(a1-3)[Gal(b1-4)GlcNAc(b1-3)Gal(b1-4)GlcNAc(b1-3)Gal(b1-4)GlcNAc(b1-3)Gal(b1-4)GlcNAc(b1-3)Gal(b1-4)GlcNAc(b1-2)Man(a1-6)]Man(b1-4)GlcNAc(b1-4)GlcNAc
# Summary of the method: as §1
# [15] = target: Gal(b1-4)GlcNAc(b1-3)Gal(b1-4)GlcNAc(b1-3)Gal(b1-4)GlcNAc(b1-3)Gal(b1-4)GlcNAc(b1-3)Gal(b1-4)GlcNAc(b1-2)Man(a1-3)[Gal(b1-4)GlcNAc(b1-3)Gal(b1-4)GlcNAc(b1-3)Gal(b1-4)GlcNAc(b1-3)Gal(b1-4)GlcNAc(b1-3)Gal(b1-4)GlcNAc(b1-2)Man(a1-6)]Man(b1-4)GlcNAc(b1-4)[Fuc(a1-6)]GlcNAc
# Summary of the method: as §1
# [16] = target: Gal(b1-4)GlcNAc(b1-3)Gal(b1-4)GlcNAc(b1-3)Gal(b1-4)GlcNAc(b1-3)Gal(b1-4)GlcNAc(b1-3)Gal(b1-4)GlcNAc(b1-2)[Gal(b1-4)GlcNAc(b1-3)Gal(b1-4)GlcNAc(b1-3)Gal(b1-4)GlcNAc(b1-3)Gal(b1-4)GlcNAc(b1-3)Gal(b1-4)GlcNAc(b1-6)]Man(a1-6)[Gal(b1-4)GlcNAc(b1-3)Gal(b1-4)GlcNAc(b1-3)Gal(b1-4)GlcNAc(b1-3)Gal(b1-4)GlcNAc(b1-3)Gal(b1-4)GlcNAc(b1-2)Man(a1-3)]Man(b1-4)GlcNAc(b1-4)[Fuc(a1-6)]GlcNAc
# Summary of the method: as §1
# [17] = target: Gal(b1-4)GlcNAc(b1-3)Gal(b1-4)GlcNAc(b1-3)Gal(b1-4)GlcNAc(b1-3)Gal(b1-4)GlcNAc(b1-3)Gal(b1-4)GlcNAc(b1-3)Gal(b1-4)GlcNAc(b1-2)Man(a1-3)[Gal(b1-4)GlcNAc(b1-3)Gal(b1-4)GlcNAc(b1-3)Gal(b1-4)GlcNAc(b1-3)Gal(b1-4)GlcNAc(b1-3)Gal(b1-4)GlcNAc(b1-3)Gal(b1-4)GlcNAc(b1-2)Man(a1-6)]Man(b1-4)GlcNAc(b1-4)GlcNAc
# Summary of the method: as §1
# [18] = target: Gal(b1-4)GlcNAc(b1-3)Gal(b1-4)GlcNAc(b1-3)GalNAc
# Summary of the method: as §1
# [19] = target: Gal(b1-4)GlcNAc(b1-3)Gal(b1-4)GlcNAc(b1-3)[Gal(b1-4)GlcNAc(b1-3)Gal(b1-4)GlcNAc(b1-6)]GalNAc
# Summary of the method: as §1
binder,measurement,setting,value
Nc3LysM (protein) QFTVPPDTTAEPNTIKTCTWWHVAGSGDSCTSIASTYGITSEQFARWDMETTDSPKNPSVATACKLTVGNSYCIENNFGQDDPPTPSISSSTLIGTATTSTTASTTTGNGISTPTPIQEGMETATTTTSSGNGITTPTPTQAGMETVGNCDRFHLVKSGDQCGTIASTYGITLANFYSWNPAVGTSCQSLWLDTYVCVRTIGFVPPKTTTTTTKKPTSTTSAGGVATPTPTQPGMETVSGCKKFHKGRGNVSTVASGDQCGTIATRYGISLANFYSWNPAVGSSCQTLWLDYYVCVGR,glycan array binding signal (z-score),[1],-0.013
same,glycan array binding signal (z-score),[2],-0.043
same,glycan array binding signal (z-score),[3],-0.064
same,glycan array binding signal (z-score),[4],-0.023
same,glycan array binding signal (z-score),[5],0.008
same,glycan array binding signal (z-score),[6],-0.048
same,glycan array binding signal (z-score),[7],-0.018
same,glycan array binding signal (z-score),[8],0.173
same,glycan array binding signal (z-score),[9],0.154
same,glycan array binding signal (z-score),[10],0.042
same,glycan array binding signal (z-score),[11],-0.017
same,glycan array binding signal (z-score),[12],0.254
same,glycan array binding signal (z-score),[13],-0.061
same,glycan array binding signal (z-score),[14],-0.203
same,glycan array binding signal (z-score),[15],-0.034
same,glycan array binding signal (z-score),[16],0.342
same,glycan array binding signal (z-score),[17],0.137
same,glycan array binding signal (z-score),[18],0.039
same,glycan array binding signal (z-score),[19],-0.082
